According to the supplement of paper PMC8821664:
Counter-ions that a name gives are not always drawn. The list shows a part of the results. Most values come without repeats; read them as rough. Starred links: 1 amine or outer side, 2 acyl side, 3 side chain; linkers in the order of their positions; H or OH if unused. Positions of bridges follow the written chain, without caps; N, C: chain ends. Non-standard residues stand in square brackets, D forms with d. Residues, ends and D or L forms follow the SMILES beside them. ξ: configuration not given here. *: point of attachment. Ileψ(thiazoline)Cys = CC[C@H](C)[C@H](N)C1=N[C@H](C(=O)*)CS1; Nip(3R) = O=C([C@@H]1CCCN([*:1])C1)[*:2]; Ile(3ξ) = CCC(C)[C@H](N)C(=O)O; dOrn = NCCC[C@@H](N)C(=O)O

System: Beas-2B AQP5-HiBiT reporter cells
Assay: AQP5-HiBiT luminescence relative to vehicle (ratio to vehicle); higher = higher AQP5-HiBiT protein abundance
Conditions: 10 µM; 18 h
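Note: monoclonal Beas-2B line stably carrying CMV promoter-driven AQP5-HiBiT, 5,000 cells per well in 384-well plates, lytic HiBiT plus LgBiT NanoLuc luminescence, FDA-approved drug library screen.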

**Q.** Which AQP5-HiBiT luminescence does the source give for `CCOC(=O)C1=C[C@@H](OC(CC)CC)[C@H](NC(C)=O)[C@@H](N)C1` [Oseltamivir phosphate] here?
**A.** 0.925

**Q.** For `CO[C@H]1/C=C/O[C@@]2(C)Oc3c(C)c(O)c4c(c3C2=O)C2=NC3(CCN(CC(C)C)CC3)NC2=C(NC(=O)/C(C)=C\C=C\[C@H](C)[C@H](O)[C@@H](C)[C@@H](O)[C@@H](C)[C@H](OC(C)=O)[C@@H]1C)C4=O` [Rifabutin], which AQP5-HiBiT luminescence is on record?
**A.** 1.22

**Q.** With `CO[C@H]1/C=C/O[C@@]2(C)Oc3c(C)c(O)c4c(O)c(c(/C=N/N5CCN(C)CC5)c(O)c4c3C2=O)NC(=O)/C(C)=C\C=C\[C@H](C)[C@H](O)[C@@H](C)[C@@H](O)[C@@H](C)[C@H](OC(C)=O)[C@@H]1C` [Rifampicin] as the molecule, how does the AQP5-HiBiT luminescence read?
**A.** 0.876

**Q.** `Nc1ccn([C@@H]2CS[C@H](CO)O2)c(=O)n1` [Lamivudine] was tested. Which AQP5-HiBiT luminescence did it give?
**A.** 0.71

**Q.** How did the AQP5-HiBiT luminescence turn out when `CC1(C)O[C@@H]2C[C@H]3[C@@H]4CCC5=CC(=O)C=C[C@]5(C)[C@H]4[C@@H](O)C[C@]3(C)[C@]2(C(=O)CO)O1` [Desonide] was run?
**A.** 0.935

**Q.** For `CCCCC1C(=O)N(c2ccccc2)N(c2ccccc2)C1=O` [Phenylbutazone], which AQP5-HiBiT luminescence is on record?
**A.** 0.934

**Q.** `CNC(=O)c1ccccc1Sc1ccc2c(/C=C/c3ccccn3)n[nH]c2c1` [Axitinib] was tested. Which AQP5-HiBiT luminescence did it give?
**A.** 0.888

**Q.** Which AQP5-HiBiT luminescence does the source give for `Cc1ccc(Nc2nccc(N(C)c3ccc4c(C)n(C)nc4c3)n2)cc1S(N)(=O)=O` [Pazopanib] here?
**A.** 0.323

**Q.** How did the AQP5-HiBiT luminescence turn out when `CO[C@H]1C(=O)[C@]2(C)[C@@H](OC)C[C@H]3OC[C@@]3(OC(C)=O)[C@H]2[C@H](OC(=O)c2ccccc2)[C@]2(O)C[C@H](OC(=O)[C@H](O)[C@@H](NC(=O)OC(C)(C)C)c3ccccc3)C(C)=C1C2(C)C` [Cabazitaxel] was run?
**A.** 1.62

**Q.** Which AQP5-HiBiT luminescence does the source give for `COc1cccc(OC)c1C(=O)N[C@@H]1C(=O)N2[C@@H]1SC(C)(C)[C@@H]2C(=O)O` [Methicillin sodium] here?
**A.** 1.04

**Q.** For `CCC(C)[C@H](NC(=O)[C@H](CCCN=C(N)N)NC(=O)[C@H](CCC(=O)O)NC(=O)[C@@H]1CCCN(C(=O)[C@H](CO)NC(=O)[C@@H](NC(=O)[C@@H](N)CCCN=C(N)N)C(C)CC)C1)C(=O)N[C@@H](CC(=O)O)C(=O)N[C@@H](C)C(=O)N[C@@H](CC(C)C)C(=O)O` (stereo partly drawn) [Risperidal] (H-R[Ile(3ξ)]S[Nip(3R)]ER[Ile(3ξ)]DAL-OH), which AQP5-HiBiT luminescence is on record?
**A.** 1.13

**Q.** How did the AQP5-HiBiT luminescence turn out when `NC(CO)(CO)CO` [Trometamol] was run?
**A.** 1.08

**Q.** `c1ccc2[nH]c(-c3cscn3)nc2c1` [Thiabendazole] was tested. Which AQP5-HiBiT luminescence did it give?
**A.** 0.849

**Q.** Which AQP5-HiBiT luminescence does the source give for `C[C@]1(Cn2ccnn2)[C@H](C(=O)O)N2C(=O)C[C@H]2S1(=O)=O` [Tazobactam acid] here?
**A.** 1.05

**Q.** `N#Cc1ccc2[nH]cc(CCCCN3CCN(c4ccc5oc(C(N)=O)cc5c4)CC3)c2c1` [Vilazodone] was tested. Which AQP5-HiBiT luminescence did it give?
**A.** 2.57

**Q.** How did the AQP5-HiBiT luminescence turn out when `O.O=[Si]=O.O=[Si]=O.O=[Si]=O.O=[Si]=O.[O]=[Mg].[O]=[Mg].[O]=[Mg]` was run?
**A.** 0.71

**Q.** Which AQP5-HiBiT luminescence does the source give for `C#Cc1cccc(Nc2ncnc3cc(OCCOC)c(OCCOC)cc23)c1` [Erlotinib] here?
**A.** 0.361

**Q.** How did the AQP5-HiBiT luminescence turn out when `CC(O)(P(=O)(O)O)P(=O)(O)O` [Etidronate] was run?
**A.** 1.02

**Q.** With `CC1=C(/C=C/C(C)=C/C=C/C(C)=C/CO)C(C)(C)CCC1` [Vitamin A] as the molecule, how does the AQP5-HiBiT luminescence read?
**A.** 1.05

**Q.** `CC[C@H](C)[C@H](N)C1=N[C@H](C(=O)N[C@@H](CC(C)C)C(=O)N[C@H](CCC(=O)O)C(=O)N[C@H](C(=O)N[C@H]2CCCCNC(=O)[C@H](CC(N)=O)NC(=O)[C@@H](CC(=O)O)NC(=O)[C@H](Cc3cnc[nH]3)NC(=O)[C@@H](Cc3ccccc3)NC(=O)[C@H]([C@@H](C)CC)NC(=O)[C@@H](CCCN)NC2=O)[C@@H](C)CC)CS1` [Bacitracin] ({Ileψ(thiazoline)Cys}-L[dE]IK[dOrn]I[dF]H[dD]N; lactam 4-C) was tested. Which AQP5-HiBiT luminescence did it give?
**A.** 1.13

**Q.** For `C[Se]CC[C@H](N)C(=O)O` [Selenomethionine], which AQP5-HiBiT luminescence is on record?
**A.** 0.712

**Q.** `CC1(C)[C@H](C(=O)O)N2C(=O)C[C@H]2S1(=O)=O` [Sulbactam] was tested. Which AQP5-HiBiT luminescence did it give?
**A.** 0.975

**Q.** For `CCC[C@H](NC(=O)[C@@H]1[C@H]2CCC[C@H]2CN1C(=O)[C@@H](NC(=O)[C@@H](NC(=O)c1cnccn1)C1CCCCC1)C(C)(C)C)C(=O)C(=O)NC1CC1` [Telaprevir (VX-950)], which AQP5-HiBiT luminescence is on record?
**A.** 1.01

**Q.** How did the AQP5-HiBiT luminescence turn out when `CNCCCN1c2ccccc2CCc2ccccc21` [Desipramine hydrochloride] was run?
**A.** 1.12

**Q.** For `CN(C)c1nc(N(C)C)nc(N(C)C)n1` [Altretamine], which AQP5-HiBiT luminescence is on record?
**A.** 0.738
